# Experimental data taken from publication PMC4336329 (PLoS ONE, 2015).
# The campaign covered roughly 310,000 compounds. About 2,200 (0.71%) showed an effect of 50% or more. The effect is printed as a negative number. Some of the results follow.
# Molecular target: human ether-à-go-go-related gene (hERG) potassium channel (human, UniProt Q12809)
# Assay: primary screen, population patch clamp on CHO cells stably expressing hERG
# human ether-à-go-go-related gene (hERG) potassium channel, sequence (Q12809 whole entry, looked up): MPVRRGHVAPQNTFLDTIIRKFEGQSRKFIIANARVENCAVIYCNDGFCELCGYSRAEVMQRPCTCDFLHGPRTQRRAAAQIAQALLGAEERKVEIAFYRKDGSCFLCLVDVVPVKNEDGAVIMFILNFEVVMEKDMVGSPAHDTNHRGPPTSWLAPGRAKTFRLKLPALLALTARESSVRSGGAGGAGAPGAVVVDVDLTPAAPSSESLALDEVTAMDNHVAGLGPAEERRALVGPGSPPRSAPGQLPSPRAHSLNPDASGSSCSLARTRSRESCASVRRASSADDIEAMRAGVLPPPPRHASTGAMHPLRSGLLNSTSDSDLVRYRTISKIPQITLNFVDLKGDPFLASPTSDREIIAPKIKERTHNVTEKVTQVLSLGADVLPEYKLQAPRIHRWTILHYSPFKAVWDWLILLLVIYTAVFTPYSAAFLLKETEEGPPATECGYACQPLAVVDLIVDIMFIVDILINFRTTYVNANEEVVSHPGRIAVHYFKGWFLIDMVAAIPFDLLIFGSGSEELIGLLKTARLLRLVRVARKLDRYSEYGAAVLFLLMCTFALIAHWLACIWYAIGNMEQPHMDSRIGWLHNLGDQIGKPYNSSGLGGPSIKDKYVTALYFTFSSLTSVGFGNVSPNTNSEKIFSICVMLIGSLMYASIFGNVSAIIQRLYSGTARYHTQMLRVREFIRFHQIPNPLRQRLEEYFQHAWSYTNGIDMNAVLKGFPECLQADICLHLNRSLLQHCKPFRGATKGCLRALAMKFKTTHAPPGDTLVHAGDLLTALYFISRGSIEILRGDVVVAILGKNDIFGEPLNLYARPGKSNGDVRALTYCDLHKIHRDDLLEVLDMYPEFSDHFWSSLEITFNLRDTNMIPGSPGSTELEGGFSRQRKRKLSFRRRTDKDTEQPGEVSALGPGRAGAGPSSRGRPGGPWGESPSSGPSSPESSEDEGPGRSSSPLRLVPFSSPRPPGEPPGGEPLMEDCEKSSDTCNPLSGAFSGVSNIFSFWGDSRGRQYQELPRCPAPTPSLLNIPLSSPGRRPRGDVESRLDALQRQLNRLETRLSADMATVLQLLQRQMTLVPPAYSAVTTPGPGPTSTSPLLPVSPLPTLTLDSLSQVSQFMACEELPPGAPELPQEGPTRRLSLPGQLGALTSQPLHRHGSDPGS
row,SMILES,"hERG current change (%, negative = inhibition) at 1uM"
1,COC(=O)C1=C(C)NC(=S)N(C(C)=O)C1c1ccc(OC)c(OC)c1 (centres unmarked),8.84%
2,Cc1cc(C)n2nc3nc(N4CCCCC4)nc(-c4ccco4)c3c2n1,17.3%
3,CCC(NC(=O)COC(=O)C1CC2CCCC(C1)C2=O)c1ccc(Br)cc1 (centres unmarked),12%
4,O=c1[nH]c(Nc2nc3ccccc3o2)nc2c1CCCC2,10.2%
5,O=C(CCNC(=O)c1ccc(Cl)cc1)NCc1cccc(C(F)(F)F)c1,8.11%
6,COC(=O)c1c(/N=C/NOCc2ccc(Cl)cc2)sc2c1CCN(c1ncc(C(F)(F)F)cc1Cl)C2,8.22%
7,CCN(CC(=O)NCc1ccc(Cl)cc1)C(=O)CCOc1ccc(C)cc1,-38.8%
8,COc1cccc(N2CCN(C(=O)CN3C(=O)NC(C)(c4ccc5ccccc5c4)C3=O)CC2)c1 (centres unmarked),-10.5%
9,CCc1ccc(NC(=O)C2C3CCC(O3)C2C(=O)O)cc1 (centres unmarked),12.8%
10,CCOC(=O)N1CCN(C(=O)c2ccc3c(c2)sc2nc(-c4ccccc4)cn23)CC1,-1.93%
11,O=[N+]([O-])c1ccc(N/N=C/c2cccc(O)c2)cc1,12.3%
12,COC(=O)N/N=C/c1cccc(OC(=O)c2ccc3c(c2)OCO3)c1,5.2%
13,COc1cccc(OC)c1NC(=O)Cc1nn(C)c(=O)c2ccccc12,9.86%
14,COc1ccc(OC)c(CNS(=O)(=O)c2c(C)nc3scc(C)n3c2=O)c1,18.2%
15,CC(=O)Nc1ccc(C2=NN(Cc3nnc(-c4ccccc4)o3)C(=O)SC2)cc1,6.78%
16,COc1cc(Cl)ccc1OCc1cc(C(=O)NC(C)Cc2cnccn2)no1 (centres unmarked),-3.23%
17,O=C(NC1CCCc2ccccc21)N[C@@H](Cc1ccccc1)C(=O)O (some centres unmarked),-2.57%
18,CC(NC(=O)C1CC2CCCC(C1)C2=O)c1ccccc1 (centres unmarked),0.665%
19,CC(C)N(C(=O)COC(=O)CNS(=O)(=O)c1ccccc1F)c1ccccc1,11.8%
20,O=C(OCc1ccccc1)/C(=C/c1cccc([N+](=O)[O-])c1)NC(=O)c1ccco1,-34.9%
21,COc1ccc(CCNC(=O)C2CCN(C(=O)c3ccc(F)cc3)CC2)cc1OC,15.1%
22,COc1ccc(NS(=O)(=O)c2cc(NC(=O)CC(C)(C)C)ccc2N2CCCC2)cc1,-0.956%

row,SMILES,"hERG current change (%, negative = inhibition) at 1uM"
1,CN(C)C(=O)CCC(=O)N1CCCC(C(=O)c2ccc(C(F)(F)F)cc2)C1 (centres unmarked),11.3%
2,CC(=O)C1C(c2ccccc2)c2c(n[nH]c2C)CC1(C)O (centres unmarked),2.8%
3,CC(C)(C)c1nc(CN2CCOCC2)cc(CN2CCOCC2)c1O.Cl,-2.95%
4,N#CC1=C(N)n2c(s/c(=C\c3ccco3)c2=O)=C(C#N)C1c1ccco1 (centres unmarked),-14.9%
5,O=C(OC1CCCCC1=O)c1cc(=O)c2ccccc2o1 (centres unmarked),13.8%
6,Nc1nnc(SCC(=O)NC2CCCCCCC2)s1,12%
7,CC(C)CNC(=O)NC(=O)COC(=O)c1cc([N+](=O)[O-])ccc1NCc1ccccc1Cl,3.41%
8,COc1cc(/C=N/O)c(Br)cc1OCC(=O)Nc1ccccc1C,5.8%
9,COc1ccc(N(C(=O)c2snc(C(N)=O)c2N)C(C(=O)NC2CCCCC2)c2ccc(C)o2)cc1 (centres unmarked),14.8%
10,CSc1ncc(/C=C2/C(=O)NC(=O)N(c3ccc(C)cc3)C2=O)cn1,13.2%
11,COc1ccc(-c2csc(NC(=O)c3ccc(S(=O)(=O)N4CCc5ccccc5C4)cc3)n2)c(OC)c1,14.1%
12,COc1ccc(N2CCN(CC(=O)N3CCC(C)CC3)CC2)cc1,5.38%
13,O=C(Nc1nnc(CCN2CCCCC2)s1)c1ccccc1Cl,5.3%
14,O=C(c1ccc(Cl)cc1)c1ccc(OCC(O)CN2CCOCC2)cc1 (centres unmarked),10.9%
15,COc1ccc2c(C)c(Cc3ccccc3)c(=O)oc2c1OC,9.24%
16,CC(C)OCCCNC(=O)C(NS(=O)(=O)c1ccc2c(c1)c(=O)n(C)c(=O)n2C)c1ccccc1 (centres unmarked),6.63%
17,CCc1ccc(OCCOCCN2CCN(C)CC2)cc1.O=C(O)C(=O)O,8.56%
18,S=C1NCCOCCOCCNC(=S)N2CCOCCOCCN1CCOCCOCC2,13.2%
19,COc1cccc(Cl)c1NC(=O)N1CCN(c2ccnc3cc(Cl)ccc23)CC1,12.8%
20,Cc1cc(C)c(Cn2cnc(-c3ccc([N+](=O)[O-])cc3)c2)c(C)c1,8.82%
21,Cc1ccc(-c2csc(NC(=O)N3CCOCC3)n2)cc1,6.24%
22,CCOc1cccc(C2C(C#N)=C(N)Oc3cc(C)[nH]c(=O)c32)c1OCC (centres unmarked),11.1%

row,SMILES,"hERG current change (%, negative = inhibition) at 1uM"
1,CCOC(=O)N1CCN(c2nnc(-c3ccccc3)c3ccccc23)CC1,8.84%
2,O=C(NC1CCCN(Cc2ccc(Cl)cc2)C1)c1ccoc1 (centres unmarked),-24.5%
3,COc1ccc(C(=O)OCC(=O)Nc2cc(C)on2)c(OC)c1OC,13.4%
4,CSCCC1NC2(C(=O)Nc3ccc(Cl)cc32)[C@@H]2C(=O)N(C3CCCC3)C(=O)[C@H]12 (some centres unmarked),0.174%
5,O=C(CSc1nc2ccccc2c2nc3ccccc3n12)NCc1ccco1,-3.66%
6,CC(=O)c1ccc(Sc2ccccc2)cc1,12.1%
7,Cc1cccc(-n2ncc3c(Nc4c(C)n(C)n(-c5ccccc5)c4=O)ncnc32)c1,1.01%
8,Cc1cccc(C)c1OCc1cc(C(=O)N(C)Cc2nc3ccccc3[nH]2)no1,-6.23%
9,O=C(/C=C/c1ccccc1)C1=C(O)C(=O)N(CCO)C1c1cccc([N+](=O)[O-])c1 (centres unmarked),13.1%
10,CCC(C)c1ccccc1NC(=O)C(C)OC(=O)CN1C(=O)NC(C)(C)C1=O (centres unmarked),7.31%
11,COc1cc(Nc2ccc(S(=O)(=O)N3CCN(C)CC3)cc2[N+](=O)[O-])cc(OC)c1,9.37%
12,CCOC(=O)c1cc(C(=O)c2cccs2)n2ccc(C(C)=O)cc12,15%
13,O=C(Nc1ccccc1C(=O)N1CCCC1)c1ccccc1,7.18%
14,CC(=O)OCC(=O)[C@@]1(O)CC[C@H]2[C@@H]3CCC4=CC(=O)CC[C@]4(C)[C@H]3[C@@H](O)C[C@@]21C,9.06%
15,CC(=O)c1c(COC(=O)c2ccc(Cl)cc2)nc2ccccc2[n+]1[O-],9.84%
16,COC(=O)C1=C(C)N(CC2CC2)C(=O)N[C@H]1c1ccccc1,13.8%
17,COc1ccc(NC(=O)CSc2nnc(Cn3nnc4ccccc43)n2C)cc1,6.2%
18,CCc1ccccc1N(C)S(=O)(=O)c1ccc(-c2cc(C)no2)s1,16%
19,COc1ccc(Nc2nnc(-c3ccncc3)s2)cc1Cl,13.9%
20,COC(=O)Cn1cnc2c(nnn2-c2cccc(OC)c2)c1=O,13%
21,CN1CCN(c2ccccc2NC(=O)Cn2ncc3c([nH]c4ccccc43)c2=O)CC1,-0.453%
22,COc1ccc(C(=O)N/C(=C\c2cccs2)C(=O)N2CCN(C)CC2)cc1OC,-33.9%

row,SMILES,"hERG current change (%, negative = inhibition) at 1uM"
1,Nc1nnc(SCC(=O)OCC(=O)c2ccccc2)s1,5.25%
2,CCCNc1c(N)c(=O)oc2ccccc12,-2.56%
3,Cc1nonc1OCCNc1ccc([N+](=O)[O-])cc1,-17.1%
4,CN(CC(=O)Nc1ccc(N2CCOCC2)cc1)C(=O)CSc1ccc(Br)cc1,9.94%
5,COCCOc1cnn(-c2cc(Oc3ccc(C)cc3)ncn2)c(=O)c1Cl,7.88%
6,CCN(CC)CCNC(=O)c1ccc(NC(=O)c2ccc(F)cc2)cc1,2.19%
7,CCOC(=O)c1ccc(NC(=O)c2ccc(C)c(S(=O)(=O)N3CCOCC3)c2)cc1,1.28%
8,C1COCCO1.Cc1cc(C)c2nc(Nc3nc(-c4ccccc4)cc(=O)[nH]3)nc(C)c2c1,7.45%
9,Cc1ccc(S(=O)(=O)NCC2CCCO2)cc1 (centres unmarked),12.3%
10,Brc1cc2c(cc1-c1nc3ccccc3s1)OCO2,12.9%
11,Cc1cc(NC(=O)CCC(=O)N(c2ccccc2)C(C(=O)NC2CCCC2)c2ccccc2F)no1 (centres unmarked),6.52%
12,COc1ccc(CCC(=O)Nc2cccc(Cl)c2)cc1,2.87%
13,CCCCNC(=O)N1CCN(C(=O)C2CCCO2)CC1 (centres unmarked),9.05%
14,C=CCNC(=O)N1c2ccccc2Sc2ccccc21,-3.91%
15,COc1ccc(OC)c(CN2CCC(C(=O)N3CCOCC3)CC2)c1.O=C(O)C(=O)O,15%
16,Cl.O=C(OCCN1CCOCC1)c1cccc(F)c1,14.5%
17,COc1ccc(NC(=O)c2ccco2)c([N+](=O)[O-])c1,9.74%
18,C=CCNC(=S)N1CCC(C(=O)c2ccc3c(c2)OCCO3)CC1,-3.19%
19,Cn1cc(C(=O)c2ccc(Cl)cc2Cl)cc1C(=O)NN,11.4%
20,CCCCN1C(=O)C(CC(=O)NCC)SC1=Nc1ccccc1 (centres unmarked),4.72%
